Test results published in the supplement of paper PMC10126150.
Sequences with one replicate were seen in a single cluster, so their values are uncertain.

System: ATP
Experiment: switch fluorescence ratio, 500 uM ATP over buffer (Cy3 cluster intensity, sum of 5 cycles each) (fold (ratio)); higher = stronger signal-on switching upon ATP binding; sequences stand for … in TCGTCGGCAGCGTCAGATGTGTATAAGAGACAGTTTTTTTTTTTTTTTTTTTTTTTTT…TC
Details: aptamer strand: ATP DNA aptamer (quencher-CACCTGGGGGAGTATTGCGGAGGAAGG + anchor), 100 nM annealed; ATP concentration: 500 uM; one replicate
In short: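 After annealing to 100 nM quencher-labelled ATP aptamer, Cy3-labelled switching-strand clusters on a modified Illumina MiSeq flow-cell were imaged in selection buffer. A second image followed after 15 min with 500 uM ATP at 22 °C, and five such buffer/ATP cycles were done, each separated by NaOH stripping and re-annealing. The fluorescence ratio, averaged per switch-domain sequence, is summed target-cycle over summed buffer-cycle Cy3 intensity per cluster, with clusters outside 100-1000 RFU excluded.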
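Also: ATP exposure 15 min at 22 °C before imaging.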

Sequence	switch fluorescence ratio
GCTTTCCCGG	1.17
TTCTCATCTT	0.973
TTGGAGTGCA	0.961
CCATTTCTCG	1
CTGCTATCAA	1.01
TCAGAAAATT	1.01
GCATGCGGTT	0.999
GTAGCATTCC	3.97
GAGATTATAC	0.976
CATGGTGAGG	1.01
CGCACATGTA	1.13
GAGACTAAAT	1.01
TCGCTTTCGA	0.985
GGTAATCTTT	0.956
GGTCAGAGCG	1.01
TCAAAACGTG	1
CTGCAGA	0.977
TCCGCGTATG	1.27
CGGATCGCAC	3.84
TCTTTCAGTG	1.03
TTATCGGGCA	0.979
GATATGTGCG	0.985
AAGCTATTCG	0.977
TAATGCGTCC	0.974
GCTCGCCTGC	1.02
GGGTATTTTC	1

Sequence	switch fluorescence ratio
CTAGACCCG	1.01
TGACAGGCAA	1.28
GGCACCTCAA	1.06
GAGTTCGTCT	1.01
ATTATGTCAA	1.01
CACGCCTAGG	1.13
GGTTCGTCAT	0.998
CTTTGCTGAA	0.983
ATCCTGGACT	1
GGAATGGCGT	0.979
GATTCGGATT	1.01
GACAGGGGGC	1.04
TACGCCCGGA	1.15
GGCCACCGAC	1.11
GAGCTTAGGC	0.896
CATAGTTGGA	0.985
GTAATATGAA	0.964
GGCGCACTGG	1.1
AGTATTTTTC	0.972
TTCCGGGTT	1.03
TGCCTTATCG	1.02
GGTTGCCAT	0.974
CAGTAGAGAG	1.02
TTGCGAAGGG	1.28
TTTATTTCAA	0.96
TTCCTGAATT	2.24

Sequence	switch fluorescence ratio
CAATATATGG	0.964
ATCGGCATCT	1.03
AAGACGGTAA	1.03
AGCAAACGAT	1.05
TCAACAAATT	1.3
CAGGCGATAG	1.04
AGAGACGTCA	0.999
TTAATCGATC	1.01
GAAACTGCTA	1.06
CCTTCTATGG	1
GAGCATCACG	1.06
TGTCAATCG	0.99
AGGAGCTAT	1.08
CACTCTGACG	1.07
CGGTGGGAAC	1.03
GAATCGTGTT	0.978
CACCGCATGG	1.88
GCTAATGCAA	0.98
AAATGTGGGC	1.06
CTTCGTATCT	1.65
TCCAAGGATG	1.03
ATAGGATACG	1.11
ACGTTCTTAG	1.01
GTGCGCGACC	1.11
GGATGTACGT	0.999
TTGGTCACGT	1.03

Sequence	switch fluorescence ratio
TCAGTATAC	1.12
GTACTAGGCG	1.05
CACGGTTCTG	1.03
TACATTCGT	1.07
CCAAATTTAC	1.32
CCTAGGATTT	1.03
TGCTCAGAGT	0.995
TTGCTAATAG	1.1
GGCGGCACTG	1.01
GCACTATGGG	0.981
CCCTGAGAGG	1.03
GGGTCCAGAT	1.03
ACCGGCGATG	1.02
AGTAATATGT	1.05
GCAAGCGGTT	1.01
TCATGTTGAG	0.98
GGTAGACTAC	1.01
TGACTCTCGG	1.06
TACGTTGGCT	1.02
CTAGCAAGTA	0.979
CAAGGAGGAA	1.01
TGGGACCATA	1.01
TGATCCGTAC	1.73
TGGCTCTGAA	1.02
CATAAAGGGA	1.01
GTGGGAAGT	1

Sequence	switch fluorescence ratio
ATTTTGGAAC	1.03
AGAGAACCTG	1.12
TTTCTCGACT	1.08
GAGCTGGGGT	0.99
TAGGGGGGA	1
GCGAGGTAGC	0.97
TGTTCGAAGG	1.03
GCTTCACACG	1.04
TTAGACGACC	1.17
ATGCCGCAGC	1.14
AGGGATTCTA	0.959
CAAGTCGGGA	1.01
ATGAAGTTTA	0.994
ACAACGCATG	1.37
GAACGATTAA	0.984
CGCGGCATGG	1.16
TTCCTACACT	1.21
AAGATTGGAT	1.01
CTAGTGTTGT	0.958
GTAGTTCTAT	0.997
TAGCATAGGA	1
AACTTATCA	0.977
ATCATCCCCT	1
TTCAAATAGG	1
TCGGCTTCGC	1.13
ATCTTGTCTC	1.01

Sequence	switch fluorescence ratio
CCTCTTATTT	1.04
ACTTACTTTG	1.11
TGTAATGTAA	1
TACGTATAAG	1.04
ATGAGGAGAG	1.01
CACTCTCGC	1.16
AATGTGGTG	0.966
ACTTGCGACA	1.08
CGCGACCAAT	1.37
CGAACCTCTC	1.17
AGAGAAATTT	1.01
AGGACTGGGC	0.944
TGGAATCTT	1
TACGAAAGT	1.04
GAAGATCGCG	0.987
CCTGACCGTG	1.01
TATTGTTCGT	0.978
TAGTAGCATC	1.11
CGCAGTGGGG	1.07
ATTACAGCTA	1.15
GCCTTACCAG	1.1
TTTACACCGG	1.06
TATCCCTTG	0.993
ATCAGCTACA	0.998
TTCACCTGCG	1.06
CAGTCGAGGC	1.01

Sequence	switch fluorescence ratio
GACCCATAGC	1.05
CAGGGGAACT	0.992
GCCGGACTAC	1.33
ACACGCTCAT	1.05
CGGCCATGGG	0.96
CGGGGGGTAT	0.993
ACTAGCTTTT	1.04
AAGGCCGCCG	0.98
GGTCGCCGGT	1.04
GCTGGTTATT	0.944
TACAAACGT	1.64
ATCCGGGCTA	0.986
TTCTTTAAAT	0.967
ATACGATAAG	1.05
CCCATCTCTT	1.04
TCGGATGCC	1.09
AACCTGGCCG	1.13
TATTTTACAA	1.01
GCGCGAAATG	1
TCATGGGCAC	0.99
TCACATAGTG	0.968
CTTTTCGGTA	0.983
CCATGATAGG	1.03
GATTGTGCTA	1.02
TTATTTCCAT	0.986
ACTACGAGGA	1.05

Sequence	switch fluorescence ratio
TTCGCTTCGC	1.05
TGTCTTTATG	0.995
GAGCGCTCCA	0.973
AGAAGTGAAC	0.981
CCGAGAAAGA	1.88
TTCTCGACGC	2.32
TTACTGTATA	1.19
ATCAACGTAA	1.2
ATTGTGCATC	1.01
AGACTTGGG	0.995
TTGCAGGGTA	0.998
CGATAGTCT	0.9
TACGGGAGTT	0.987
CGAGCGAGGG	0.961
AAAAGCGGGA	0.992
ACTTTTTCAT	1.03
CGGCTCACTC	1.13
CGGGGGAATT	1.04
GTTTTATACA	0.989
